No constants are given. Whether binding was seen depends on the method and setting. Binding seen in cells or lysates may run through a third protein. Some results given as binding are weak or reduced against the parent protein; the word gives no strength.
Legend:
[1] = target: Myc-tagged LETM1 (pCMV-3Tag-2a LETM1) (human) (UniProt O95202); assay: co-IP; HEK293 cells co-transfected with p3xFLAG-CMV-PINK1 and pCMV-3Tag-2a LETM1 for 1 day; IP with anti-Myc and blot with anti-FLAG, and the reverse; lysis buffer 50 mM Tris-HCl pH 7.4, 100 mM NaCl, 2 mM EDTA, 1 mM DTT, 1% Triton X-100, 0.1% SDS; 4 °C
[2] = target: T1, mitochondrial Na+/Ca2+ exchanger (NCLX) (UniProt Q6J4K2); assay: co-IP; Co-IP between LETM1 and MCU or NCLX in HEK293 cells
T1 sequence: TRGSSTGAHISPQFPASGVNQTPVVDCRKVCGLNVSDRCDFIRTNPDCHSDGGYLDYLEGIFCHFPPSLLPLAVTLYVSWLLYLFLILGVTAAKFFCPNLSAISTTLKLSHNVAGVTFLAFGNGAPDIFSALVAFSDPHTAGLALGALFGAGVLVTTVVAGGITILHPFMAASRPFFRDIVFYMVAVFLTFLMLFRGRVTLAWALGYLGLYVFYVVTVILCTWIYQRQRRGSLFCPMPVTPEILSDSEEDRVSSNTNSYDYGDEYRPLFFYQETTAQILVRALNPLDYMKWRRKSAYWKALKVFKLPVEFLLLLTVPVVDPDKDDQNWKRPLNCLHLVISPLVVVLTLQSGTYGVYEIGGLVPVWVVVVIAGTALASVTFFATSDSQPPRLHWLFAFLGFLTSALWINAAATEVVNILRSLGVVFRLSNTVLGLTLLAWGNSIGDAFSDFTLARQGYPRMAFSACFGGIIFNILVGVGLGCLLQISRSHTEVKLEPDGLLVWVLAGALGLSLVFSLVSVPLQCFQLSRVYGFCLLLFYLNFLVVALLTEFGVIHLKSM

Chains of the proteins cited; added tags and fusions are not shown. Lines headed by an entry give the natural chain unless they say otherwise; changes in a name come on top. Residues count along the entry.
UniProt O95202, residues 116-739: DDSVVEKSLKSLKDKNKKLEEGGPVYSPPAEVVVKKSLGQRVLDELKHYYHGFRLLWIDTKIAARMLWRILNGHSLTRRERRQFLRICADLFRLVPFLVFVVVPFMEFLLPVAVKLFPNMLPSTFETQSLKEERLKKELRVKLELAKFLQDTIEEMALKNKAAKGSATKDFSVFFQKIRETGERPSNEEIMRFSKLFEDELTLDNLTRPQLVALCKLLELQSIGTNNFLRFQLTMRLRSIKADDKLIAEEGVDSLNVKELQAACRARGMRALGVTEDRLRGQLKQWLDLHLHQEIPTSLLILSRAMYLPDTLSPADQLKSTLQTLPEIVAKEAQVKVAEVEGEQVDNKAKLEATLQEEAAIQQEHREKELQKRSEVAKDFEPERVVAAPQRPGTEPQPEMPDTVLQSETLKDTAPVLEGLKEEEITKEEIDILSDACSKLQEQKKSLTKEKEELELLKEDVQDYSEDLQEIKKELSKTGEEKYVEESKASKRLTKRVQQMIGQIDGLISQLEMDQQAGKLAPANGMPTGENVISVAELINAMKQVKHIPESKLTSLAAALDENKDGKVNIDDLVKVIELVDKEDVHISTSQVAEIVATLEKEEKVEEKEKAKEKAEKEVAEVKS
UniProt Q8NE86, residues 51-351: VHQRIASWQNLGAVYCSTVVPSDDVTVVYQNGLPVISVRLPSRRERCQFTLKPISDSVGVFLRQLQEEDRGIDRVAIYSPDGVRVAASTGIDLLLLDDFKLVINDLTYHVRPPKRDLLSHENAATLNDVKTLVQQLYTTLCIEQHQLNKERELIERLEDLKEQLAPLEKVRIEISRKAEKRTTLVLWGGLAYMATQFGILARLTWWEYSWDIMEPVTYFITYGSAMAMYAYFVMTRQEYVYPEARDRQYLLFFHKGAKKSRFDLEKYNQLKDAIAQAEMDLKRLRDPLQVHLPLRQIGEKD
UniProt Q9BXM7, residues 78-581: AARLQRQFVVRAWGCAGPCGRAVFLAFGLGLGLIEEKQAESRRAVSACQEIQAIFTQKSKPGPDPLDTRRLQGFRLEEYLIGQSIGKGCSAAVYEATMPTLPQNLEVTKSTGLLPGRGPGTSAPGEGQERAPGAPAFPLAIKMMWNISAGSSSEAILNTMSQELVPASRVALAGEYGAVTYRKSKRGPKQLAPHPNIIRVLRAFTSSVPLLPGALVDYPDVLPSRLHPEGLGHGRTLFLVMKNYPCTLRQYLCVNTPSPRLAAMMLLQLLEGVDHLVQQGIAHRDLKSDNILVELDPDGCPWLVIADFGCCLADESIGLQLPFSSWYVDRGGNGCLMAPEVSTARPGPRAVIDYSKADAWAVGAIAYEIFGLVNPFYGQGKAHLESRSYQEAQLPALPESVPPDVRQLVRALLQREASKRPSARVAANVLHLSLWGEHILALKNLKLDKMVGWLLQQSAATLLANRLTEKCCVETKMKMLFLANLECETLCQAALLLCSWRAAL

[3] = target: mitochondrial calcium uniporter (MCU) (UniProt Q8NE86); assay: as above
[4] = target: FLAG-tagged PINK1 (p3xFLAG-CMV-PINK1) (UniProt Q9BXM7); assay: co-IP; HEK293 cells co-transfected with p3xFLAG-CMV-PINK1 and pCMV-3Tag-2a LETM1 for 1 day; IP with anti-Myc and blot with anti-FLAG, and the reverse; lysis buffer 50 mM Tris-HCl pH 7.4, 100 mM NaCl, 2 mM EDTA, 1 mM DTT, 1% Triton X-100, 0.1% SDS; 4 °C
[5] = target: endogenous LETM1 (human post-mortem brain) (human (endogenous in post-mortem brain)) (UniProt O95202); assay: co-IP; human post-mortem brain lysate; IP with control IgG or anti-LETM1 and blot with anti-PINK1, and inversely IP with anti-PINK1 and blot with anti-LETM1
[6] = target: endogenous LETM1 (SH-SY5Y cells) (human (endogenous in SH-SY5Y)) (UniProt O95202); assay: co-IP; endogenous proteins from human SH-SY5Y neuroblastoma cells

Question: “FLAG-tagged PINK1 (p3xFLAG-CMV-PINK1) (from UniProt Q9BXM7 78-581) (enzyme)” was tested. Which binding [1] did it give?
Answer: binds

Question: For “LETM1 (HEK293 cells, Co-IP with MCU or NCLX) (from UniProt O95202 116-739)”, which binding [2] is on record?
Answer: no binding

Question: And the binding [3]?
Answer: no binding

Question: “Myc-tagged LETM1 (pCMV-3Tag-2a LETM1) (from UniProt O95202-1 116-739)” was tested. Which binding [4] did it give?
Answer: binds

Question: With “endogenous PINK1 (human post-mortem brain) (from UniProt Q9BXM7 78-581) (enzyme)” as the substance, how does the binding [5] read?
Answer: binds

Question: For “endogenous PINK1 (SH-SY5Y cells) (from UniProt Q9BXM7 78-581) (enzyme)”, which binding [6] is on record?
Answer: binds

From article PMC5680261
